# Laboratory results: publication PMC6919601, “Identification of Plasmodium dipeptidyl aminopeptidase allosteric inhibitors by high throughput screening” (PLoS ONE, 2019)
# Screen size: about 110,000 compounds; about 230 (0.21%) showed an effect of 50% or more. The list shows a part of the results.
# Molecular target: DPAP1 (Plasmodium falciparum, UniProt Q8IIJ9)
# Experiment: primary screen, percent inhibition; read by cleavage of a fluorogenic dipeptide substrate; higher = more effect of the substance
# Design: species or system P. falciparum D10 trophozoite lysates; single well
# 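Further: 30 min substrate incubation versus DMSO and 10 µM JCP410 controls.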
# Chain of DPAP1 (Q8IIJ9 whole entry, looked up): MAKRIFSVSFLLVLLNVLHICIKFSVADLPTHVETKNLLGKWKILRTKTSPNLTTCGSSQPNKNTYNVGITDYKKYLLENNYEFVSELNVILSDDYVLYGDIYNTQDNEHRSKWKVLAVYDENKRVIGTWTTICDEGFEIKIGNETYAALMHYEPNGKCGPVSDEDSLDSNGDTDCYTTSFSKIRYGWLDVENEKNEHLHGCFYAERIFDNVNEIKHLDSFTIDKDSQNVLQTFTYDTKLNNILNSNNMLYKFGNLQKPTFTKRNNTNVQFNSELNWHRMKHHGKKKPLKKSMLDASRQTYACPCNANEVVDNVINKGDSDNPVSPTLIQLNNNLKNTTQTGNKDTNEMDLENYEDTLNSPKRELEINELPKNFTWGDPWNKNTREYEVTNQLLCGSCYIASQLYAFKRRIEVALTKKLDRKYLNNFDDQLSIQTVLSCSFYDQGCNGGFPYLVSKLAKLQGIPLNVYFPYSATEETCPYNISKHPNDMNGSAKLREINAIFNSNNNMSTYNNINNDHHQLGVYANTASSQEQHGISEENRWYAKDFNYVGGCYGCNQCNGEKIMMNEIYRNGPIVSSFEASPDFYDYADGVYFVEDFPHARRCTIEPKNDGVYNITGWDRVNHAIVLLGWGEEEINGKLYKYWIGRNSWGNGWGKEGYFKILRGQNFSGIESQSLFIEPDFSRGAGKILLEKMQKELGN
row,Structure (SMILES),% Inhibition @ 10 uM
1,O=C(COc1ccccc1)Nc1ccccc1NC(=O)COc1ccccc1,-0.116%
2,O=C(c1ccc2nc(N3CCCCC3)sc2c1)N1CCN(Cc2ccccc2)CC1,-2.37%
3,Cc1ccc(Cl)cc1N(CC(=O)Nc1cccc(Br)c1)S(C)(=O)=O,0.913%
4,Cc1ccc(-c2cc(C(=O)NCCCn3ccnc3)c3ccccc3n2)s1,-5.56%
5,CCN1CCN(C2CCCCCC2)CC1,-4.75%
6,CC(=O)C1=C(O)C(=O)N(CCc2c[nH]c3ccccc23)C1c1cccc(F)c1 (stereo not shown),-3.95%
7,c1nc2c(ccc3nsnc32)[nH]1,-2.14%
8,C=CCNC(=O)CN(c1ccccc1OC)S(=O)(=O)c1ccccc1,3.17%
9,COc1cccc(N2/C(=N\C(=O)c3ccc(Br)cc3)SC3CS(=O)(=O)CC32)c1 (stereo not shown),-1.82%
10,CC(=O)c1c(C)n(-c2cccc(C(F)(F)F)c2)c2ccc(O)cc12,11.4%
11,COc1ccc(OC)c(C2CC(=O)C3=C(C2)NC(=O)CC3c2ccc(O)c(OC)c2)c1 (stereo not shown),-2.24%
12,O=C(NCC1CCCO1)c1ccc(CN2CCc3ccccc3C2)cc1 (stereo not shown),-1.81%
13,CCOC(=O)C1=C(C)N(C)C(SC)=NC1c1ccco1 (stereo not shown),3.01%
14,CCC(=O)N1N=C2C3CCN(CC3)C2C1c1ccccc1 (stereo not shown),-5.1%
15,CCCCOc1ccc(S(=O)(=O)N(Cc2ccccc2)Cc2ccccc2)cc1,4.55%
16,O=C(/C=C/c1ccc(Cl)cc1)NCCCn1ccnc1,5.44%
17,COc1ccc2[nH]c3c(=O)n(CCCCC(=O)N4CCN(C)CC4)c(=S)[nH]c3c2c1,34.4%
18,CCO/C(O)=C1/C(CC)=NC2=C(C(=O)CCC2)C1c1ccc(Cl)cc1 (stereo not shown),-2.35%
19,CCOc1cc(Br)c(/C=C2\SC(=O)NC2=O)cc1OC,-3.98%
20,COc1ccccc1CNC(=O)c1sc2nc(-c3cccs3)ccc2c1N,-1.47%
21,CC(=O)c1ccc(NC(=O)c2ccc(COc3cccc4ccccc34)o2)cc1,-5.31%
22,CC(C)C(=O)N1CCN(c2ccc(NC(=O)c3ccc(C#N)cc3F)cc2)CC1,2.84%
23,O=S(=O)(NC1CCCCC1N1CCN(c2ncccn2)CC1)c1ccccc1 (stereo not shown),-9.95%
24,N#CC1=C(N)Oc2c(c(O)nc3nc(Nc4ccccc4)sc23)C1c1ccc(Br)cc1 (stereo not shown),-1.06%
25,CC(CCCC(C)(C)O)CC1OCC(C)O1 (stereo not shown),-2%

row,Structure (SMILES),% Inhibition @ 10 uM
1,CC1=C(C(=O)NCCc2ccc(C)cc2)C2(CCC(C)CC2)OC1=O (stereo not shown),4.77%
2,CCOc1ccc(Br)cc1C1/C(=C(\O)OC(C)C)C(C)=Nc2nnnn21 (stereo not shown),-1.72%
3,COc1ccc(C(=O)Nc2ccc(C(=O)O)cc2)cc1,-8.3%
4,COc1nc(C)c([N+](=O)[O-])c(N(C)c2ccccc2)n1,-0.736%
5,COc1cc(CN2CCN(Cc3ccccc3Br)CC2)cc(OC)c1,-11.4%
6,Cc1ccc2c(c1)NC(c1ccco1)C1=C(O)CC(C)(C)CC1=N2 (stereo not shown),5.66%
7,CC(=O)Nc1ccc(NC(=O)CCCC(=O)O)cc1,-0.128%
8,CC(C)(C)NC(=O)CN(C1CCCCC1)S(C)(=O)=O,2.44%
9,CC1CCC2C(=O)N(CNc3cccc(Cl)c3)C(=O)C2C1 (stereo not shown),-2.53%
10,CC(C)SC1=NSC2=NC(=O)/C(=C\c3ccc(OS(C)(=O)=O)c(Cl)c3)C(=N)N21,-3.51%
11,N#CCNC(=O)[C@H](CC1CCCCC1)NC(=O)c1ccc(Cl)s1,-5.21%
12,CCn1c(=O)c(C(=O)Nc2nc(-c3ccc(Br)cc3)cs2)c(O)c2ccccc21,-3.04%
13,COc1ccccc1[C@H]1NCC[C@@]2(O)CCCC[C@H]12,-5.5%
14,c1ccc2cc(OCCCCCN3CCCCC3)ccc2c1,3%
15,COc1ccc(-c2cc(C(=O)Nc3sc(C)c(C)c3C(N)=O)c3ccccc3n2)c(OC)c1,7.74%
16,Cc1c(C)n(C)c2ccc(C(=O)N3CCOCC3)cc12,1.78%
17,Cc1cccc(C(=O)NC2=NC(=O)CC(c3ccccc3Cl)N2)c1 (stereo not shown),-3.3%
18,CCOc1ccc(-c2cc(CCCC(=O)NCCc3sccc3C)no2)cc1,1.62%
19,Cc1ccc(C2CC(=O)N=C(N)N2)cc1 (stereo not shown),-4.76%
20,COc1cccc2c1NC(c1ccccc1)C1CC=CC21 (stereo not shown),5.37%
21,Cc1cc(NC(=O)c2ccc(N(C)S(C)(=O)=O)cc2)ccc1Br,-1.44%
22,Cc1cccn2c(=O)c3cc(C(=O)NCCc4ccccc4)c(=N)n(Cc4ccco4)c3nc12,20.7%
23,CSc1nc(Oc2cccc(C)c2)cc(-n2nc(C)c(C#N)c2N)n1,-0.725%
24,COc1cccc(CNC(=O)c2cn(C3CCCC3)c(=O)c3c2c2ccccc2n3C)c1,-1.58%
25,COc1ccc(OC)c(NC(=O)c2sc3ccccc3c2Cl)c1,-1.5%

row,Structure (SMILES),% Inhibition @ 10 uM
1,CC(NC(=O)c1cccc2c1C(=O)N(C1CCCCC1)C2)c1ccccc1 (stereo not shown),4.01%
2,CC(C)c1ccc(OCCN2CCCCC2)cc1,3.76%
3,Cc1ccc(-c2cc(C(F)(F)F)n3ncc(C(=O)NCc4cn(C)nc4C)c3n2)cc1,0.24%
4,CCOC(=O)N1CCC(N2Cc3cccc(C(=O)NCc4ccccn4)c3C2=O)CC1,2.9%
5,CC1(C)CC2=Nc3sc(C#N)c(N)c3C(c3ccccc3)C2=C(O)C1 (stereo not shown),6.08%
6,CC(NC(=O)c1cc2c(s1)-c1ccccc1OC2)c1ccc2c(c1)OCCO2 (stereo not shown),-3.08%
7,O=C(c1cccnc1)n1nc(-c2ccco2)nc1NCc1cccs1,-6.98%
8,c1ccc(-c2ccc(NC3CCCC3)nn2)cc1,-4.8%
9,COc1ccc(C(=O)Nc2ccc(Br)c(C)c2)c(OC)c1,-6.33%
10,O=C(Nc1nnc(S(=O)(=O)NCc2ccccc2)s1)C1CCCCC1,1.68%
11,CCN1CCN(CCNC(=O)c2ccc3c(c2)c(C)c(C)n3C)CC1,2.29%
12,CC(=O)Nc1ccc(Oc2cccc(Oc3ccc(NC(C)=O)cc3)c2)cc1,-6.02%
13,O=C(NCCc1ccc(Cl)cc1)c1coc2nc3ccccc3nc12,3.04%
14,Cc1[nH]c2ccc(C(=O)N3CCOCC3)cc2c1C,4.27%
15,Fc1ccc(N2CCN(Cc3ccccc3)CC2)cc1,-0.192%
16,COc1cc2c(cc1NC(=O)Nc1cccc(C)c1)oc1ccccc12,-9.2%
17,CSc1nc(-c2ccccc2)nc(N2CCN(C)CC2)c1C(C)=O,6.7%
18,CC1CCN(c2c(NCc3ccc(C(=O)NCc4ccccc4Cl)cc3)c(=O)c2=O)CC1,-4.26%
19,Cc1ccc(S(=O)(=O)Cc2ccc(C(=O)N3CCC(C(N)=O)CC3)o2)cc1,-10.3%
20,Cc1ccc(-n2nc3c(=O)n(CCCC(=O)N4CCC5(CC4)OCCO5)nc(C)c3c2C)cc1,-6.33%
21,Cc1ccc(-c2nc(CS(=O)(=O)CC(=O)N(C)Cc3ccccc3)c(C)o2)cc1,-3.93%
22,COc1ccc(CNc2nc(-c3ccc(Cl)cc3)nn2C(=O)Cc2ccc(OC)cc2)cc1,-1.11%
23,COc1cc(C2NC(=O)NC(O)(C(F)(F)F)C2C(=O)c2cccnc2)cc(OC)c1OC (stereo not shown),5.46%
24,COc1cccc(CN2CCN(Cc3cccc(Br)c3)CC2)c1OC,3.7%
25,COc1ccc(-c2ccc3c(N)c(C#N)sc3n2)cc1,-3.63%

row,Structure (SMILES),% Inhibition @ 10 uM
1,CCOc1ccc(-n2c(CNC(=O)c3ccco3)nnc2SCC(=O)Nc2nccs2)cc1,1.91%
2,O=C(CN(c1ccc2c(c1)OCCO2)S(=O)(=O)c1ccccc1)NCc1ccc(Cl)cc1,-6.39%
3,OC1CCN(c2ccc(Cl)cn2)CC1,-1.2%
4,Cc1cccc(CN2CCN(CC(=O)N3CCCCCC3)C2=O)c1,-1.27%
5,COc1ccc(-c2nc(CSCC(=O)N3CCN(C(=O)c4ccco4)CC3)c(C)o2)cc1OC,3.99%
6,Cc1nc2nc(C)c(Br)c(O)n2n1,-2.8%
7,CCc1ccc(NC(=O)CSc2ncn(-c3ccccc3)n2)cc1,5.39%
8,COc1cccc(/C=C/c2nc(C#N)c(N(C)C)o2)c1,2.54%
9,Cc1cc(C)nc(SCc2nc3ccc(Cl)cn3c2Cl)n1,0.906%
10,CC1CCCCC1NC(=O)c1cc2c(s1)CS(=O)(=O)C2 (stereo not shown),-4.86%
11,COc1cc(OC)cc(C(=O)Nc2ccc(C)cc2C(=O)O)c1,-0.891%
12,CN(C)c1ccnc(Oc2ccccc2Cl)c1C#N,-0.712%
13,CCn1cc(/C=C2/NC(=O)N(Cc3cccc(C)c3)C2=O)c2ccccc21,-12.5%
14,NC(=O)C1c2ccccc2CSc2ccccc21 (stereo not shown),-15.6%
15,COc1cccc(-c2ccc3c(N)c(C(=O)Nc4ccc(OC)c(OC)c4)sc3n2)c1,-9.68%
16,COc1ccc(CCN2C(=O)CC3CCCCC3C2=O)cc1OC (stereo not shown),-4.31%
17,CCOc1ccc(-c2[nH]cnc2[N+](=O)[O-])cc1,3.48%
18,COc1cc(-c2nnc3sc(-c4cccnc4)nn23)cc(OC)c1OC,14.3%
19,Cc1ccc(NC(=O)c2cc3ccccc3oc2=O)c(C)c1,4.6%
20,CC1(C)CC(=O)C2=C(C1)N(c1ccccc1)C(N)=C(C#N)C2c1ccccc1 (stereo not shown),-3.19%
21,Cc1sc(NC(=O)/C=C/C(=O)O)c(C#N)c1C,-0.906%
22,Cc1c2cnn(CC(=O)NCCC3=CCCCC3)c(=O)c2c(C)n1Cc1ccccc1,4.4%
23,CC1(C)CC(NC(=O)c2ccccc2)CC(C)(C)N1O,2.8%
24,CCOC(=O)c1c(N)n(C(=O)c2ccccc2)[nH]c1=O,-2.05%
25,CCc1ccc(C2C=C(c3ccc(Br)cc3)Nc3nnnn32)cc1 (stereo not shown),0.0842%
